According to PubChem BioAssay AID463173 (ICCB-Longwood Screening Facility, Harvard Medical School, 2010):
The campaign covered roughly 52,000 compounds. About 4,300 (8.3%) were called active. Rule as the data show it: active = survival mostly below about 52% (no sharp cut-off); inactive = mostly above about 56%. The list shows a part of the results.

tested on: DeltatarO mutant; test: S. aureus survival, RN4220 and DeltatarO strains – OD600, teichoic acid synthesis inhibitors, primary screen (AID 463173); conditions: S. aureus RN4220 wild type/DeltatarO growth, OD600, 18 h, hits give low values, screened at 18.75 µg/mL (by protocol)

Row | SMILES | survival
1 | CC(=O)NCCNC(=O)CCCc1nnc2n(CC(C)C)c(=O)c3sccc3n12 | inactive: 96%
2 | COc1ccc(-c2cc(-c3nc(-c4cc(OC)c(OC)c(OC)c4)no3)[nH]n2)c(OC)c1 | inactive: 102%
3 | CCc1nnc2c3ccccc3nc(Nc3cc(C)cc(C)c3)n12 | active: 26%
4 | COc1ccc(S(=O)(=O)NCc2cccn2Cc2cc(C)ccc2C)cc1OC | inactive: 84%
5 | COc1cccc(NC(=O)Cn2c(=O)n(Cc3ccc(F)cc3)c(=O)c3sc4ccccc4c32)c1 | inactive: 73%
6 | CCc1ccc(-c2nc3cc(NC(=O)c4ccc(C)c(C)c4)ccc3o2)cc1 | inactive: 151%
7 | COc1ccc(S(=O)(=O)n2nc(-c3ccco3)nc2NCc2ccc(C(C)C)cc2)cc1 | inactive: 81%
8 | CCOc1ccc(NC(=O)c2nc(S(=O)(=O)Cc3ccccc3F)ncc2Cl)cc1 | active: 11%
9 | COc1cccc(C(=O)Nc2nnc(S(=O)(=O)N3CCCc4ccccc43)s2)c1 | active: 18%
10 | Cc1cccc(C)c1NC(=O)Cn1cc(C(=O)C2CC2)c2ccccc21 | inactive: 67%
11 | Cc1nn(CCC(=O)Nc2cccc(C#N)c2)c(C)c1S(=O)(=O)N1CCCCC1 | inactive: 88%
12 | COc1ccc(OC)c(S(=O)(=O)NCCS(=O)(=O)N2CCN(c3ccccc3F)CC2)c1 | inactive: 67%
13 | CCS(=O)(=O)NCCc1csc2nc(-c3ccc(OC)cc3)nn12 | inactive: 76%
14 | Cc1ccc(C)c(CN2C(=O)c3ccccc3S(=O)c3ccc(C(=O)N4CCCCC4)cc32)c1 (stereo not drawn) | inactive: 83%
15 | O=C(CN1C(=O)COc2ccc(S(=O)(=O)N3CCCCCC3)cc21)N1CCN(c2ccc(Cl)cc2)CC1 | inactive: 85%
16 | COc1cc(NC(=O)Cc2noc3ccccc23)cc(OC)c1OC | inactive: 57%
17 | O=c1[nH]c(C2CCCN(S(=O)(=O)c3ccccc3)C2)nc2c1nnn2Cc1ccccc1Br (stereo not drawn) | inactive: 88%
18 | CCOC(=O)c1cccc(NC(=O)Nc2c(C)n(C)n(-c3ccccc3)c2=O)c1 | inactive: 94%
19 | Cc1cccc(-n2ncc3c(NNC(=O)c4ccccc4Cl)ncnc32)c1 | inactive: 64%
20 | COc1ccc(-c2ccc(=O)n(CC(=O)Nc3cc(OC)ccc3OC)n2)cc1 | inactive: 80%
21 | CCCc1oc(C(=O)O)cc1CN1CCOCC1 | inactive: 76%
22 | COc1ccc(CNC(=O)c2cc(-c3ccc(Br)s3)nc3ccccc23)cc1 | inactive: 77%

Row | SMILES | survival
23 | COc1ccc(C(=O)c2cn(Cc3ccccc3OC)c3cc4c(cc3c2=O)OCO4)cc1 | inactive: 95%
24 | CCN(CC)C(=O)c1sc2c(c1C)c(=O)n(-c1ccc(OC)cc1OC)c(=O)n2CC(=O)Nc1ccccc1 | inactive: 73%
25 | Cc1cccc(N2CCN(c3nc4ccccc4c4nnc(C)n34)CC2)c1C | inactive: 97%
26 | COc1ccc(CNC(=O)Cn2cccc2C(=O)c2ccccc2C)cc1 | inactive: 78%
27 | Cc1cc(C)cc(-n2ccnc2SCC(=O)Nc2ccccc2F)c1 | inactive: 71%
28 | Cc1ccc(OCCn2c(C3CC(=O)N(Cc4ccc(F)cc4)C3)nc3ccccc32)c(C)c1 (stereo not drawn) | active: 3%
29 | COc1ccccc1/C=C/C(=O)Nc1nc2n(n1)C(c1ccc(F)cc1)C=C(c1ccccc1)N2 (stereo not drawn) | inactive: 65%
30 | O=C(Nc1ccccn1)C(=NO)C(=O)Nc1ccccn1 | inactive: 98%
31 | O=S(=O)(NCC(c1ccccc1)N1CCc2ccccc21)c1ccc(Cl)cc1 (stereo not drawn) | inactive: 73%
32 | Cc1ccc(-n2nnnc2SCC(=O)NCCc2ccccc2)cc1C | active: 42%
33 | COc1ccc(NC(=O)c2ccc(NC(=O)CCS(=O)(=O)c3cccs3)cc2)cc1Cl | inactive: 63%
34 | CCOc1ccc(N(CC(=O)OC)S(=O)(=O)c2ccc3c(c2)n(C)c(=O)c(=O)n3C)cc1 | active: 46%
35 | CCC(C)NC(=O)Cn1c(=O)n(-c2ccc(Cl)cc2)c(=O)c2c3c(sc21)CCCC3 (stereo not drawn) | inactive: 79%
36 | Cc1ccc(C)c(N2CCN(C(=O)c3c(C)oc4nc(C)nc(N5CCOCC5)c34)CC2)c1 | inactive: 115%
37 | Clc1cccc(-c2cc3nc4c(c(N5CCCCC5)n3n2)CCCC4)c1 | inactive: 99%
38 | CCCCC(=O)OC1=CN(Cc2ccccc2)S(=O)(=O)c2ccccc21 | inactive: 106%
39 | COc1ccc2c(c1)c(CC(=O)Nc1c(C)cccc1C)c(C)n2C(=O)c1ccc(Cl)cc1 | inactive: 78%
40 | CSc1ccc(CCNC(=O)c2ccc(-n3c(C)cc4c3CCC(C)C4)cc2)cc1 (stereo not drawn) | inactive: 129%
41 | COc1ccc(OCC(=O)NCc2ccc3c(c2)CCN3C(=O)c2cccc(C)c2)cc1 | inactive: 82%
42 | Cc1cc(C)cc(NC(=O)CCn2cnc3ccccc3c2=O)c1 | inactive: 77%
43 | CCOc1ccccc1NC(=O)Cn1c(=O)n(-c2ccc(C)cc2)c(=O)c2c1cnn2C | inactive: 77%
44 | Cc1cc(C(=O)Nc2ccccc2C(=O)O)c(C)o1 | inactive: 66%

Row | SMILES | survival
45 | CCc1cccc(NC(=O)CC(c2ccc(OC)cc2)N2Cc3ccccc3C2=O)c1 (stereo not drawn) | inactive: 69%
46 | CC(C)c1ccc(C2NC(=O)c3c(sc4c3CCN(C)C4)N2)cc1 (stereo not drawn) | inactive: 60%
47 | O=C(NCc1cccc(Cl)c1)c1cnc(N2CCOCC2)c2ccccc12 | inactive: 89%
48 | O=C(O)CNc1ccc2nncn2n1 | inactive: 90%
49 | CCOc1ccc(NS(=O)(=O)c2c(C)nc3sc(CC)nn3c2=O)cc1 | inactive: 77%
50 | COCCNC(=O)c1ccc2c(c1)ncn2-c1cc(C)ccc1OC | inactive: 102%
51 | CCc1ccc(CNC(=O)Cn2nc(C)c3nn(-c4ccc(Cl)cc4)c(C)c3c2=O)cc1 | inactive: 93%
52 | CCN(CC)C(=O)CSc1nnc2c3ccccc3n(C)c2n1 | inactive: 89%
53 | Cn1cccc1-c1cc2n(n1)CCC(=O)N2CCCC(=O)NCc1cccc(Cl)c1 | inactive: 85%
54 | CCCc1nnc(SCc2cc(=O)c3c(C)cc(C)cc3[nH]2)n1C | inactive: 95%
55 | CCc1nnc(NC(=O)CSc2nccn2Cc2ccc(Cl)cc2)s1 | inactive: 83%
56 | Cc1ccc(OCCCn2c(-c3ccc(Cl)cc3)nc3ccccc3c2=O)cc1C | inactive: 58%
57 | O=C(NCC(c1ccc2c(c1)OCO2)N1CCN(c2ccccc2)CC1)c1ccc(F)c(F)c1 (stereo not drawn) | inactive: 69%
58 | O=C(Nc1ccc(F)cc1F)C1CCN(C(=O)c2cnn(-c3ccccc3)c2-n2cccc2)CC1 | inactive: 106%
59 | C=CCC(CC=C)(CNC(=O)C(=O)Nc1ccc(Br)cc1)c1ccc(OC)c(OC)c1 | inactive: 68%
60 | O=C1C=C(N2CCCCC2)C2(CCCCC2)O1 | inactive: 106%
61 | CCCc1cnc2c(c1SCc1ccc(C(F)(F)F)cc1)c(=O)n(C)c(=O)n2C | inactive: 54%
62 | CC(C)Oc1ccc(CNC(=O)c2ccc(Cn3c(=O)c4cccn4c4cccnc43)cc2)cc1 | inactive: 55%
63 | Cc1ccc(NC(=O)CSc2ccc(-c3sc(-c4ccccc4)nc3C)nn2)cc1F | active: 25%
64 | O=C(Cn1cc(/C=N/NC(=O)c2ccc(Oc3ccc(O)cc3)cc2)c2ccccc21)NCc1ccco1 | inactive: 71%
65 | COc1ccccc1N1CCN(C(=O)Cn2ncc3c(=O)oc4ccc(C)cc4c32)CC1 | inactive: 98%
66 | Cc1cccc(N2CCN(C(=O)CCSCc3ccccc3F)CC2)c1C | inactive: 102%

Row | SMILES | survival
67 | CN(C)S(=O)(=O)c1ccc(C(=O)Nc2ccc(-n3nncc3-c3ccccc3)cc2)cc1 | inactive: 105%
68 | COc1ccccc1NS(=O)(=O)c1cc2c(cc1Cl)NC(=O)CO2 | inactive: 82%
69 | c1ccc(C2CN3CCSC3=N2)cc1 (stereo not drawn) | inactive: 79%
70 | O=C1CN(C(=O)Nc2ccccc2C(F)(F)F)C(c2ccccc2)c2c(sc3c2CCCC3)N1 (stereo not drawn) | inactive: 66%
71 | CCOc1ccc(CCNC(=O)CSc2cc(=O)n(C)c3ccc(Cl)cc23)cc1OCC | inactive: 123%
72 | O=C(O)CCCNC1=NCCN1 | inactive: 98%
73 | Cc1ccc(OCC(O)Cn2c(=N)n(CCN3CCCCC3)c3ccccc32)cc1 (stereo not drawn) | active: 36%
74 | Cc1ccc(-n2ncc(C(=O)NCCCN3CCCCC3)c2C2CCN(C(=O)OC(C)(C)C)CC2)cc1 | inactive: 80%
75 | COc1cccc(OC)c1C(=O)Nc1ccc(S(=O)(=O)Nc2nccc(C)n2)cc1 | inactive: 84%
76 | COc1ccc(C(C(=O)NCc2cccs2)N(Cc2ccco2)C(=O)Cn2nnc(-c3cccs3)n2)cc1 (stereo not drawn) | inactive: 93%
77 | Cc1ccc(NC(=O)c2c(C)nc3sc(C(=O)Nc4ccc(F)cc4)c(N)c3c2-c2ccccc2Cl)c(C)c1 | inactive: 65%
78 | CCOC(=O)c1c(C)n(-c2ccccc2)c2ccc(OC(=O)c3ccccc3NC(=O)C(C)(C)C)cc12 | inactive: 55%
79 | CC(=O)c1ccc(NC(=O)Cn2c(=O)n(Cc3ccco3)c(=O)c3sc4ccccc4c32)cc1 | inactive: 51%
80 | Cc1ccc(N(Cc2cccs2)C(=O)COc2cccc(C)c2)cc1 | inactive: 62%
81 | CCc1nnc(SCC(=O)N2c3ccc(F)cc3CCC2C)n1C (stereo not drawn) | inactive: 66%
82 | COc1ccc(C2=NC(C)(C)N(CC(=O)Nc3ccc(F)c(F)c3)C2=O)cc1 | inactive: 92%
83 | Cc1nn2c(=O)cc(COC(=O)CNC(=O)c3ccc(F)cc3)nc2s1 | inactive: 55%
84 | CCN1CCN(c2cc(C)c3cc(NC(=O)c4cc(Cl)ccc4OC)ccc3n2)CC1 | active: 8%
85 | CCOc1ccc2c(c1)c(=O)c(S(=O)(=O)c1ccccc1)cn2CC(=O)Nc1ccccc1OC | inactive: 70%
86 | Cc1ccc(CNC(=O)C2CCN(S(=O)(=O)c3ccc4c(c3)CCCN4C(=O)C3CCC3)CC2)cc1 | inactive: 80%
87 | O=C(NCCSc1c(-c2ccccc2)[nH]c2ccccc12)c1ccc(S(=O)(=O)N2CCOCC2)cc1 | inactive: 70%
88 | Cc1nc(-c2ccccc2)sc1CCNS(=O)(=O)c1ccccc1 | inactive: 73%
